# This is one part of the list.
# Legend:
# Test in all cases: glycan array binding signal (z-score within array); higher = stronger binding
# Details in all cases: glycan notation: IUPAC condensed, linker removed
# Gal(b1-3)GalNAc = molecular target: Gal(b1-3)GalNAc
# Summary of the method: (§1)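 Arrays were curated from the Consortium for Functional Glycomics database, 3228 in total, and kept only where the protein sequence was available. Binding is expressed as a within-array Z-score. This score was averaged across arrays of the same protein sequence at different concentrations or buffers and across linkers, and negative values can be read as non-binding.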
# [1] = molecular target: Gal(b1-3)GalNAc(b1-3)Gal(a1-4)Gal(b1-4)Glc
# Summary of the method: as §1
# [2] = molecular target: Gal(b1-3)GalNAc(b1-3)Gal(b1-4)Glc
# Summary of the method: as §1
# [3] = molecular target: Gal(b1-3)GalNAc(b1-3)Gal(b1-4)GlcNAc
# Summary of the method: as §1
# [4] = molecular target: Gal(b1-3)GalNAc(b1-4)Gal(b1-4)Glc
# Summary of the method: as §1
# [5] = molecular target: Gal(b1-3)GalNAc(b1-4)[Neu5Ac(a2-3)]Gal(b1-4)Glc
# Summary of the method: as §1
# [6] = molecular target: Gal(b1-3)GlcNAc(b1-3)Gal(b1-3)GlcNAc
# Summary of the method: as §1
# [7] = molecular target: Gal(b1-3)[Fuc(a1-4)]GlcNAc
# Summary of the method: as §1
# [8] = molecular target: Gal(b1-3)[Fuc(a1-4)]GlcNAc(b1-3)Gal(b1-3)[Fuc(a1-4)]GlcNAc
# Summary of the method: as §1
# [9] = molecular target: Gal(b1-3)[Fuc(a1-4)]GlcNAc(b1-3)Gal(b1-4)GlcNAc
# Summary of the method: as §1
# [10] = molecular target: Gal(b1-3)[Fuc(a1-4)]GlcNAc(b1-3)Gal(b1-4)[Fuc(a1-3)]GlcNAc
# Summary of the method: as §1
# [11] = molecular target: Gal(b1-3)[GlcNAc(b1-6)]GalNAc
# Summary of the method: as §1
# [12] = molecular target: Gal(b1-3)[GlcNAc(b1-6)]GlcNAc
# Summary of the method: as §1
# [13] = molecular target: Gal(b1-3)[Neu5Ac(a2-6)]GalNAc
# Summary of the method: as §1
# [14] = molecular target: Gal(b1-3)[Neu5Ac(a2-6)]GlcNAc
# Summary of the method: as §1
# [15] = molecular target: Gal(b1-3)[Neu5Ac(a2-6)]GlcNAc(a1-4)Gal(b1-4)Glc
# Summary of the method: as §1
# [16] = molecular target: Gal(b1-3)[Neu5Ac(b2-6)]GlcNAc
# Summary of the method: as §1
# [17] = molecular target: Gal(b1-4)GalNAc(a1-3)[Fuc(a1-2)]Gal(b1-4)GlcNAc
# Summary of the method: as §1
# [18] = molecular target: Gal(b1-4)GalNAc(b1-3)[Fuc(a1-2)]Gal(b1-4)GlcNAc
# Summary of the method: as §1
# Gal(b1-4)Glc = molecular target: Gal(b1-4)Glc
# Summary of the method: as §1
# Gal(b1-4)Glc6S = molecular target: Gal(b1-4)Glc6S
# Summary of the method: as §1
# Gal(b1-4)GlcNAc = molecular target: Gal(b1-4)GlcNAc
# Summary of the method: as §1
# [19] = molecular target: Gal(b1-4)GlcNAc(b1-2)Man(a1-3)[Gal(b1-4)GlcNAc(b1-2)Man(a1-6)]Man(b1-4)GlcNAc(b1-4)GlcNAc
# Summary of the method: as §1
# [20] = molecular target: Gal(b1-4)GlcNAc(b1-3)Gal(b1-3)GlcNAc
# Summary of the method: as §1
# [21] = molecular target: Gal(b1-4)GlcNAc(b1-3)Gal(b1-4)Glc
# Summary of the method: as §1
# [22] = molecular target: Gal(b1-4)GlcNAc(b1-3)Gal(b1-4)GlcNAc
# Summary of the method: as §1
# [23] = molecular target: Gal(b1-4)GlcNAc(b1-3)Gal(b1-4)GlcNAc(b1-3)Gal(b1-4)GlcNAc
# Summary of the method: as §1
# [24] = molecular target: Gal(b1-4)GlcNAc(b1-3)Gal(b1-4)[Fuc(a1-3)]GlcNAc(b1-3)Gal(b1-4)[Fuc(a1-3)]GlcNAc
# Summary of the method: as §1
# [25] = molecular target: Gal(b1-4)GlcNAc(b1-3)GalNAc
# Summary of the method: as §1
# [26] = molecular target: Gal(b1-4)GlcNAc(b1-3)[Gal(b1-4)GlcNAc(b1-6)]GalNAc
# Summary of the method: as §1
# [27] = molecular target: Gal(b1-4)GlcNAc(b1-6)GalNAc
# Summary of the method: as §1
# [28] = molecular target: Gal(b1-4)GlcNAc(b1-6)[Gal(b1-3)]GalNAc
# Summary of the method: as §1
# [29] = molecular target: Gal(b1-4)GlcNAc(b1-6)[Gal(b1-3)]GlcNAc
# Summary of the method: as §1
# Gal3S(b1-3)GalNAc = molecular target: Gal3S(b1-3)GalNAc
# Summary of the method: as §1
# Gal3S(b1-3)GlcNAc = molecular target: Gal3S(b1-3)GlcNAc
# Summary of the method: as §1
# [30] = molecular target: Gal3S(b1-3)[Fuc(a1-4)]GlcNAc
# Summary of the method: as §1
binder,measurement,setting,value
"X56-1 (Clostridium perfringens), P26831 (protein) MGSSHHHHHHSSGLVPRGSHMASDPNRIIATYISNRQDAPTGNPDNIFDNNASTELVYKNPNRIDVGTYVGVKYSNPITLNNVEFLMGANSNPNDTMQKAKIQYTVDGREWIDLEEGVEYTMPGAIKVENLDLKVRGVRLIATEARENTWLGVRDINVNKKEDSNSGVEF",glycan array binding signal (z-score),Gal(b1-3)GalNAc,-0.081
same,glycan array binding signal (z-score),[1],-0.193
same,glycan array binding signal (z-score),[2],-0.269
same,glycan array binding signal (z-score),[3],0.197
same,glycan array binding signal (z-score),[4],0.081
same,glycan array binding signal (z-score),[5],-0.303
same,glycan array binding signal (z-score),[6],-0.321
same,glycan array binding signal (z-score),[7],-0.09
same,glycan array binding signal (z-score),[8],0.121
same,glycan array binding signal (z-score),[9],-0.07
same,glycan array binding signal (z-score),[10],-0.031
same,glycan array binding signal (z-score),[11],-0.248
same,glycan array binding signal (z-score),[12],-0.454
same,glycan array binding signal (z-score),[13],0.454
same,glycan array binding signal (z-score),[14],-0.501
same,glycan array binding signal (z-score),[15],-0.164
same,glycan array binding signal (z-score),[16],-0.203
same,glycan array binding signal (z-score),[17],-0.007
same,glycan array binding signal (z-score),[18],-0.266
same,glycan array binding signal (z-score),Gal(b1-4)Glc,-0.173
same,glycan array binding signal (z-score),Gal(b1-4)Glc6S,-0.36
same,glycan array binding signal (z-score),Gal(b1-4)GlcNAc,-0.326
same,glycan array binding signal (z-score),[19],5.94
same,glycan array binding signal (z-score),[20],-0.369
same,glycan array binding signal (z-score),[21],-0.316
same,glycan array binding signal (z-score),[22],-0.257
same,glycan array binding signal (z-score),[23],-0.206
same,glycan array binding signal (z-score),[24],-0.211
same,glycan array binding signal (z-score),[25],-0.134
same,glycan array binding signal (z-score),[26],-0.016
same,glycan array binding signal (z-score),[27],-0.316
same,glycan array binding signal (z-score),[28],-0.092
same,glycan array binding signal (z-score),[29],-0.215
same,glycan array binding signal (z-score),Gal3S(b1-3)GalNAc,-0.167
same,glycan array binding signal (z-score),Gal3S(b1-3)GlcNAc,-0.19
same,glycan array binding signal (z-score),[30],0.479
